# Test results published in PubChem BioAssay (NCI).
# Several values for one entry are separate records, joined by “and”; a condition that tells them apart may be missing. Equal entries are not always repeated.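 Results reflect a 48-hour exposure of cells in 96-well plates to compound at five concentrations. GI50 is the concentration that inhibits growth by half. Definition used: TGI = concentration required for complete inhibition of growth.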
# System: NCI-H322M lung
# Experiment: inhibition of tumour cell growth, NCI panel, 48 h
Structure (SMILES),TGI,GI50
CC1(C)CC23C4COC(=O)C2CCC1C3CC4=O (configuration not stated),78.8 µM,
O=c1cc(NCCCCCO)[nH]c(=O)[nH]1,> 100 µM,
C/C(=N\NC(=O)c1sc(=S)n(C)c1N)c1cc2ccccc2o1,87.1 µM,15.2 µM
COc1cc(C2SCC(=O)N2c2cc(Cl)c(Cl)cc2Cl)cc(OC)c1OC (configuration not stated),> 100 µM,
COc1ccc(/C=C2\CCC(C)C3=C(c4ccc(OC)c(OC)c4)C(C#N)=C(N)OC32)cc1OC (configuration not stated),> 100 µM,
O=[N+]([O-])c1ccc(S(=O)(=O)Cc2ccccc2)c([N+](=O)[O-])c1,32.7 µM,
C=CCOC(=O)N1[C@H]2C#C/C=C\C#C[C@]3(O)C(=O)C[C@H](C)[C@]24O[C@]43C2=CC(=O)C=CC21OC (some centres not stated),> 100 µM,
COc1cc(/C=C/c2ccncc2)cc(OC)c1OC,> 100 µM,
CCS(=O)(=O)N1CCC(C(C)n2c(C)c(C(=O)NCc3c(OC)cc(C)[nH]c3=O)c3ccccc32)CC1 (configuration not stated),> 100 µM,> 100 µM
O=C(Nc1nnc(-c2ccccc2)o1)C(SC(=S)N1CCCCC1)c1ccccc1 (configuration not stated),64.4 µM,
COC(=O)CCC(=O)C(=O)OC,,26500 µM
CCOC(=O)c1cnn2c1ncc1c(=O)n(NC(N)=O)ccc12,> 100 µM,
CCCCCCCC1C(C)c2c([nH]c3ccccc23)C2C(=O)N(c3ccc(OC)cc3)C(=O)C21 (configuration not stated),> 10 µM,
COC(=O)C1=C(c2ccc(OC)c(OC)c2)OC(c2ccc(OC)c(OC)c2)C1 (configuration not stated),> 100 µM,
COc1ccc(Oc2cccc(/C=C3/C(=O)Nc4ccccc43)c2)cc1,33.6 µM,
COc1ccccc1/C=C/C1=NN(c2cccc(S(=O)(=O)O)c2)C2(C1)SCC(=O)N2c1nc2ccccc2s1 (configuration not stated),> 100 µM,
Cc1c(C#N)c2nnn(-c3ccc(Cl)cc3)c(=O)n2c1-c1ccccc1,> 86.2 µM,
C=C(CN(C)C)C(=O)c1ccccc1C,> 100 µM,
C=C1C(=O)O[C@H]2[C@H]1CC/C(CNC(=O)Cc1c[nH]c3ccccc13)=C\CC[C@@]1(C)O[C@@H]21,27.3 µM,13.5 µM
NCCNc1c2c(c(NCCN)c3c(CO)c[nH]c13)C(=O)c1ccccc1C2=O,38.6 µM,5.38 µM
COc1ccc(C2CC(c3cc(OC)c(OC)c(OC)c3)=NO2)cc1OCCCCOc1cc2c(cc1OC)C(=O)N1CCC[C@H]1C=N2 (some centres not stated),11.5 µM,3.46 µM
O=C(Nc1ccccc1-c1n[nH]c(=S)[nH]c1=O)C(F)(F)F,> 100 µM,
NNC(=O)CSc1nc2ccc(I)cc2c(=O)n1Cc1ccccc1,61.9 µM,
COc1cc(NS(C)(=O)=O)ccc1Nc1c2ccc([N+](=O)[O-])cc2nc2c(C)cccc12,21.7 µM,5.23 µM
CO/N=C(\C)c1ccc(Nc2c3ccccc3nc3occc23)cc1,18.6 µM,

Structure (SMILES),TGI,GI50
Cc1ccc2c3c1O[C@H]1c4[nH]c5ccccc5c4C[C@@]4(O)[C@@H](C2)N(C)CC[C@]314,29.4 µM,
CCN1CCN(Cc2ccc(-c3cc4c(N[C@H](C)c5ccccc5)ncnc4[nH]3)cc2)CC1,15.1 µM and > 10 µM,0.0633 µM and 0.163 µM
COc1cc(-c2cn(S(=O)(=O)c3ccc(C)cc3)c3ccccc23)nc(-c2cn(S(=O)(=O)c3ccc(C)cc3)c3ccccc23)n1,> 100 µM,
CCC1=NC(N/N=C/c2ccco2)=N/C1=C\c1ccccc1O,> 100 µM,
CCOC(=O)NC(Nc1ncccn1)(C(F)(F)F)C(F)(F)F,> 100 µM,
Cn1cc(-c2ccc3c(Nc4cccc(NC(=O)Nc5cccc(F)c5)c4)ncnc3c2)cn1,10.5 µM,3.03 µM
C/C=C/[C@H]1O[C@@](O)([C@@H](C)[C@H](O)[C@H](C)[C@H]2OC(=O)/C(OC)=C/C(C)=C/[C@@H](C)[C@@H](O)[C@@H](CC)[C@@H](O)[C@H](C)C/C(C)=C/C=C/[C@@H]2OC)C[C@H](OC2CC(O)C(O)C(C)O2)[C@@H]1C (some centres not stated),15.4 µM,
CC(=O)OC1C(C)OC(Oc2c(C)c3c4c(c2O)[C@@H](C)CC[C@@H]4[C@@H](C)C[C@H]3C=C(C)C)C(O)C1O (some centres not stated),4.54 µM,2.02 µM
Cc1cn(Cc2ccccc2CCO)c(=S)[nH]c1=O,> 100 µM,
Nc1ccc(S(=O)(=O)Nc2nnc(S(N)(=O)=O)s2)cc1,> 100 µM,
Cc1ccc(S(=O)(=O)OC2CCN(C)CC2)cc1,> 100 µM,
COc1ccccc1/C=C(\C#N)c1ccccc1,> 100 µM,
Cc1ccccc1C(=O)c1c(O)c2c(c(O)c1Br)CCCC2,42.7 µM,
C=CC[n+]1c(/C=C/C=C2\N(C)c3ccccc3C2(C)C)sc2ccc(OC)cc21,13 µM,0.531 µM
COc1ccc(OC)c(/C=N/NC(=O)Cc2csc3nc(-c4ccc(Br)cc4)cn23)c1,61.9 µM,14.7 µM
Cc1ccc2c(c1)C(C)Cc1c(ncnc1-n1cnc3ccccc31)N2C (configuration not stated),24 µM,0.647 µM
Cc1ccc(S(=O)(=O)c2c(N)c3nc4ccccc4n3c3nc4ccccc4nc23)cc1,> 100 µM,
CCOC(=O)c1c2c3c(cccc3[nH]c1=O)Sc1ncccc1-2,> 100 µM,
CC1=NCCN=C(C)C1N=Nc1ccc2nc(C)[nH]c2c1,34.9 µM,
CC1(C)CC(=O)C(CCC(=O)/C=C/c2ccccc2)C(=O)C1,> 100 µM,
C[N+](C)(C)CC1CCCC/C1=N\OC(=O)c1ccccc1 (configuration not stated),> 100 µM,
Oc1ccc(-c2csc(NNC3=NC/C(=C/c4ccc5c(c4)OCO5)S3)n2)cc1O,> 100 µM,
CCNC(C)Cc1ccccc1 (configuration not stated),> 100 µM,
O=C[C@@H](CO)O[C@H](C=O)c1c[nH]c(=O)[nH]c1=O,321 µM,
O=C(/C=C1\N=C(c2ccccc2)N(c2nc3ccc(Sc4ccccc4)cc3[nH]2)C1=O)/C=C/c1ccccc1,> 100 µM,

Structure (SMILES),TGI,GI50
Cc1c(NC(=S)NN)c(=O)n(-c2ccccc2)n1C,> 100 µM,
COC(=O)c1c2c(cc3c1CC1(Cc4cc5c(c(C=O)c4C1)CCCC5)C3)CCCC2 (configuration not stated),> 100 µM,
CC(C)(C)OC(=O)NCCCCC(N)C(N)=O (configuration not stated),> 100 µM,
CC(=O)[C@@H]1[C@@H](OC(=O)CCC(C)COC2OC(CO)C(O)C(O)C2O)C[C@H]2[C@@H]3CC=C4C[C@@H](OC5OC(CO)C(OC6OC(C)C(O)C(O)C6O)C(O)C5OC5OC(C)C(O)C(O)C5O)CC[C@]4(C)[C@H]3CC[C@]12C (some centres not stated),> 100 µM,
N#Cc1c(N2CCCC2)nsc1NCc1ccccc1,> 100 µM,
CC(C)[C@]12O[C@H]1[C@@H]1O[C@]13[C@]1(O[C@H]1C[C@H]1C4=C(CC[C@@]13C)C(=O)OC4)[C@@H]2O,,0.0307 µM
CN1N=CSC12C(=O)N(c1ccc(Cl)cc1)C(=O)N2c1ccc(Cl)cc1 (configuration not stated),89.1 µM,
CCOc1ccc2nc(-c3ccc(O)cc3)sc2c1,> 100 µM,
O=C(Nc1c(O)[nH]c(=S)[nH]c1=O)c1ccccc1F,> 100 µM,
COc1cc2c3c(n(CCCN)c(=O)c2cc1OC)-c1ccccc1C3=O,4.88 µM,0.577 µM
COc1ccc(C(=O)c2cc(OC)c(OC)c(OC)c2)cc1,> 83.2 µM,
CC1CC(C2=CC=CCS2)=Nc2ccccc2S1 (configuration not stated),> 100 µM,
NCCSc1nc2ccccc2s1,> 100 µM,
CN(C)c1ccc(/C=c2/c3ccccc3n3c2c2ccccc2[n+]3C)cc1,7.81 µM,
FC(F)(F)Oc1cccc(-c2cnc3ccc(-c4ccncc4)nn23)c1,> 100 µM,1.44 µM
COc1cccc2c1C(=O)C=CC2=O,29.3 µM,
COc1ccc2[nH]c(=O)c3c4ccccc4cn3c2c1,7.92 µM,1.23 µM
OC(c1cccc(-n2ccc(C(F)(F)F)n2)c1)c1cnccc1NC1CCCCCC1 (configuration not stated),2.95 µM,1.58 µM
COc1ccc(-c2cc(-c3cc(Cl)ccc3Cl)nc3n[nH]c(N)c23)cc1,> 100 µM,50.3 µM
COC(=O)CCc1cc(OC)c(O)c(C(Cc2ccc(OC)c(OC)c2)C(=O)OC)c1 (configuration not stated),> 100 µM,
Nc1ccc2c(c1)C(=O)C(=O)c1c-2nc2ccccn12,4.56 µM,2.06 µM
Cc1ccc(C2=Nc3cc(C)c(Cl)cc3S(=O)(=O)NN2)cc1,> 100 µM,
ON/N=C/c1cc2c(cc1Br)OCO2,> 386 µM,
CC[C@@]1(N(C)C)C(=O)OCc2c1cc1n(c2=O)Cc2cc3ccccc3nc2-1,> 100 µM,
C=C(C)C(=O)O[C@H]1C/C(CO)=C/CCC(=C)C(OC(C)=O)[C@H]2OC(=O)C(=C)[C@H]12 (some centres not stated),> 100 µM,

Structure (SMILES),TGI,GI50
CN(C)c1ccc2c(=O)c3ccccc3oc2n1,> 100 µM,
CCOC(=O)Nc1cc2nnc(-c3ccccc3)nc2c(N)n1,> 100 µM,
Cc1c2c(c(C)n1-c1ccccc1)C(=O)N(CCCCN1CCN(c3ccccc3)CC1)C2=O,> 100 µM,
CCOc1ccccc1NC(=O)CC1C(=O)Nc2ccccc2S1=O (configuration not stated),> 100 µM,
COc1cccc(C2c3cc4c(cc3OC(C)(N3CCCC3)C2C)OCO4)c1OC (configuration not stated),64.7 µM,
O=C(O)C/C(=C\c1ccco1)C(=O)O,> 100 µM,
CC(=O)ON(C(C)=O)c1ccc(-c2nc3ccccc3s2)cc1,> 100 µM,
CN(C)CCOc1ccc(-c2nc(-c3ccc4c(c3)CC/C4=N\O)c(-c3ccncc3)[nH]2)cc1,7.96 µM and 19.6 µM,3.96 µM and 6.19 µM
CC[C@]1(O)CC(OC2CC(N(C)C)C(O)C(C)O2)c2c(cc3c(c2O)C(=O)c2c(O)cccc2C3=O)[C@@H]1C(=O)OC (some centres not stated),3.56 µM,
O=C(/C=C/c1ccc(OCCCOc2ccc(/C=C/C(=O)c3ccccc3)cc2)cc1)c1ccccc1,> 100 µM,
CCCCCCCCCCCCNC(C)=O,58.3 µM,
COc1cc2c(cc1O)CC[C@@H]1[C@@H]2CC[C@]2(C)[C@@H](NCCN(C)C)CC[C@@H]12,1.06 µM,0.395 µM
O=P1(O)C=CC2(CCCC2)O1,> 100 µM,
COc1ccc2oc(=O)cc(C(c3ccc[nH]3)c3ccc[nH]3)c2c1,16 µM,0.118 µM
FC(F)(F)c1nc(N2CCCC2)ncc1-c1nnnn1-c1ccc(Cl)cc1,> 100 µM,41.2 µM
O=C(OCc1ccccc1CN1CCOCC1)c1cccc(Br)c1,> 100 µM,
Clc1ccc(CSC(Cn2ccnc2)c2ccc(Cl)cc2Cl)cc1 (configuration not stated),5.75 µM,1.99 µM
CC1(C)N=C(N)N=C(N)N1c1cccc(CCCCc2cccc(S(=O)(=O)F)c2)c1,> 100 µM,5.72 µM
ClCCCN(CCCCl)c1ccc(C=Nc2cccc(Cl)c2)cc1,> 100 µM,
CC1CC[C@]2(C(=O)O)CCC3(COC(=O)/C=C\c4ccc(O)cc4)C(=CCC4[C@@]5(C)CC[C@H](O)C(C)(C)C5CC[C@]43C)[C@@H]2[C@H]1C (some centres not stated),42.3 µM,
CCCCC[C@H](O)/C=C/[C@@H]1[C@@H](C/C=C\CCCC(=O)O)[C@@H](O)C[C@H]1O,> 100 µM,> 100 µM
COC1=C2CC(C)CC(OC)C(O)C(C)/C=C(\C)C(OC(N)=O)C(OC)/C=C\C=C(/C)C(=O)NC(=C(C=NC(C)(C)C)C1=O)C2=O (configuration not stated),34.9 µM,
